Some of the results follow. Values were computed here from the reads of four pooled replicates and scatter widely.
molecular target: T1, Pho4 (S. cerevisiae) (UniProt P07270); experiment: relative binding free energy (BET-seq); higher = weaker binding; settings: reference: library average
T1 sequence: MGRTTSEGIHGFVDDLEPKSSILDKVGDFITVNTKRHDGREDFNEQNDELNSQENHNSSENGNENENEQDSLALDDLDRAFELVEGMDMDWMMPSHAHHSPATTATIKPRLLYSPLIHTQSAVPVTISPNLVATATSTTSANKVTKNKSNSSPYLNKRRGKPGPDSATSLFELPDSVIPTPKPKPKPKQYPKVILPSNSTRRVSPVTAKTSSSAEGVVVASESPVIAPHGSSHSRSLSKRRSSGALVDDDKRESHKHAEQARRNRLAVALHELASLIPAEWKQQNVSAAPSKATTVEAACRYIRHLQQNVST

Sequence	relative binding free energy
CGAGTCACGTGTGTGT	0.502 kJ/mol
TTTTGCACGTGATTGG	0.46 kJ/mol
TAGGTCACGTGGCTTT	-0.251 kJ/mol
AGGTTCACGTGGCTTT	1.26 kJ/mol
TAGGGCACGTGGTGCT	-0.962 kJ/mol
ATTAGCACGTGCTTGT	-0.669 kJ/mol
AGTACCACGTGGTAGG	-0.418 kJ/mol
TGAGTCACGTGAGTAT	1.17 kJ/mol
TTCAACACGTGTTGGA	0.753 kJ/mol
ATTGCCACGTGGTAGA	-0.544 kJ/mol
GTAAGCACGTGTGGCT	0.418 kJ/mol
TAGGTCACGTGTATGG	0.293 kJ/mol
GTTTACACGTGTGCAA	1.46 kJ/mol
TTAGTCACGTGAGATG	1.76 kJ/mol
GGTTACACGTGTCGTA	0.544 kJ/mol
TCTTGCACGTGTGGTT	0.126 kJ/mol
AGAGACACGTGTAGGG	-0.0418 kJ/mol
ATGAGCACGTGTTAAG	-0.586 kJ/mol
CAGGTCACGTGCTTGT	0.251 kJ/mol
CCGGTCACGTGTTGTT	0.377 kJ/mol
TTATTCACGTGTGGCG	1.3 kJ/mol

Sequence	relative binding free energy
GAGTTCACGTGTGATA	1.67 kJ/mol
TTAAACACGTGGAGCG	0.711 kJ/mol
ATTTTCACGTGAGTCT	1.46 kJ/mol
GGGGTCACGTGTAGGA	0.837 kJ/mol
GTATACACGTGGGTAT	0.335 kJ/mol
TGGGACACGTGACCGG	1.21 kJ/mol
TAGGGCACGTGTCCGG	-0.628 kJ/mol
GCTGCCACGTGTGGGT	0 kJ/mol
ATATGCACGTGGACTT	0.0837 kJ/mol
GTCTGCACGTGAAAGT	1.72 kJ/mol
GCGTTCACGTGTTTAG	1.13 kJ/mol
GGGGTCACGTGTGCTT	0.502 kJ/mol
GAGAGCACGTGGGAGG	-0.293 kJ/mol
TGGAACACGTGGTGTA	-0.544 kJ/mol
CGTGTCACGTGAGGTA	1.13 kJ/mol
TTGATCACGTGGTATA	0.0837 kJ/mol
ATTTCCACGTGTGGGG	0.126 kJ/mol
GTGTGCACGTGTTTCA	-0.293 kJ/mol
TGTTGCACGTGCGTTG	0.167 kJ/mol
ATGTGCACGTGGGGCG	-0.669 kJ/mol
GGTAGCACGTGTCATT	-0.293 kJ/mol

Sequence	relative binding free energy
GCTATCACGTGTGGTG	0.837 kJ/mol
GGGTGCACGTGTTAGT	0.209 kJ/mol
GAAGGCACGTGGAGCT	0.251 kJ/mol
GAGTGCACGTGGCGGC	-0.711 kJ/mol
GGTTGCACGTGTCGTA	-0.167 kJ/mol
TTTGTCACGTGATCCT	1.05 kJ/mol
GTCTTCACGTGTGGTC	1.51 kJ/mol
TAGGTCACGTGGAATG	1.09 kJ/mol
ATGCACACGTGGAGTG	-0.0418 kJ/mol
TTTAGCACGTGTTATA	-0.167 kJ/mol
TGCGGCACGTGTTCGT	-0.126 kJ/mol
GGAGTCACGTGTGCGT	0.126 kJ/mol
TTATTCACGTGCTGAG	1 kJ/mol
GGGATCACGTGTCTTG	0.711 kJ/mol
TGCGGCACGTGGAATT	-0.0418 kJ/mol
AGAGCCACGTGTGGGT	-0.46 kJ/mol
TCGGGCACGTGGTTGA	-0.628 kJ/mol
TTTAACACGTGTTGGG	0.335 kJ/mol
GTGGTCACGTGATATT	1.42 kJ/mol
TGTGACACGTGGTCTC	-0.377 kJ/mol
TGCGACACGTGGTATG	-0.335 kJ/mol

Source: the BET-seq Pho4 binding data (Le et al. 2018)
